PubChem BioAssay (NCI)
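Assay format: 96-well plates, 48-hour exposure. GI50 marks 50% less growth. TGI marks complete inhibition of growth.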

Test system: NCI-H322M lung
Test: NCI tumour cell line growth inhibition, 48 h

Structure (SMILES) | GI50 | TGI
O=C(c1ccc(Cl)cc1)C1[C@H](c2ccccc2Cl)[C@@H](c2ccccc2)NC12C(=O)Nc1ccc(Cl)cc12 (stereo partly specified) | 20.7 µM | 58.3 µM
COc1ccc(-c2nc3ccccc3n2CC(=O)N=Nc2c(O)[nH]c3ccc(OC)cc23)cc1 | 13.3 µM | 26.1 µM
Cc1ccc(C2CC(c3ccc(NC(=S)Nc4ccccc4)cc3)=NN2c2ccc(S(N)(=O)=O)cc2)cc1 (stereo unspecified) | 5.61 µM | 39.5 µM
